Measured values reported in the RNAGym collection of RNA variant scans (doi:10.7554/elife.90254).
The source gives no read counts; variants with many changes may rest on few reads.

B1: LINE1-mini (parent)
chain: GGCAGAGCUCAACACAGCGUGGCAAAGUGGCUGUGGCUAGACUGCC

Variants of: B1
Test: self-cleavage, relative activity (ratio to wild type); higher = more cleavage; in vitro, sequencing; the parent is a self-cleaving ribozyme

Row | Variant | self-cleavage
1 | GACAGAGCUCAACACAGCGUGGUAAAGUGGCUCUGGCUAGACUGCC [G2A C23U G33C] | 0.05
2 | GACAGAGCUCAACACAGCGUGGCAAAGUGGCUGUAGUUAGACUGCC [G2A G35A C37U] | 0.21
3 | GACAGAUCUCAACACAGCGUGGCAAAGUGGCUGUGGCUAUAUUGCC [G2A G7U G40U C42U] | 0.14
4 | GACAGAGCUCAACACAGCGUGCCAAAGUGGCAGUGGCUAGACUGCC [G2A G22C U32A] | 0.16
5 | GACAGAGCGCAACACAACGGGGCAAAGUGGCUGUGGCCAGACUGCC [G2A U9G G17A U20G U38C] | 0.28
6 | GACAGAGCUCAACACAGCGGGGCAAAGUGGCUGUGGCUAGACUGAC [G2A U20G C45A] | 0.45
7 | GACAGAGCCCACAACAGCGUGGCAAAGUGGCUGUAGCUAGACUGCC [G2A U9C A12C C13A G35A] | 0.02
8 | GACAAAGCUCAACACAGCGUGGCCAAGUGGCUGUGCCUAGGCUGCC [G2A G5A A24C G36C A41G] | 0.21
9 | GACAGAGCGCAACAAAGCGUGGCAAAGUGGCUGUGGCUAGACUGCC [G2A U9G C15A] | 0.2
10 | GACAGAGCUCAACACAGCGUGGCAAACUGACUGUGGCUAGACUGCC [G2A G27C G30A] | 1.19
11 | GACAGAGCUCAACACAGCGUAGCAGAGUGGCUGUGGCUAGACUGCC [G2A G21A A25G] | 2.71
12 | GACAUAGCUCAACACAGCGUGGCACAGUGGCUCUGGCUAGACUGUC [G2A G5U A25C G33C C45U] | 0.1
13 | GACAGAGCUCAACACAGCGUGGCAAAAUGGCUGUGGCUAGACUGGC [G2A G27A C45G] | 0.44
14 | GACAGAGCGCAACAUAGCGUGUCAAAGCAGCUGUGGCUAGACUGCC [G2A U9G C15U G22U U28C G29A] | 0.34
15 | GACACAGCUCAACACAGCGUGGCAAAGUGGCUGUGGCUAGACUACC [G2A G5C G44A] | 0.03
16 | GACAAAGCUCAACACAGAGUGACAAAGUGGCUGUGGCUAGACUGCC [G2A G5A C18A G22A] | 0.11
17 | GACAUAGCUCAACACAGCGUGGCAAUGUGGCUGUGGCUAGAUUGCC [G2A G5U A26U C42U] | 0.07
18 | GACAGAGCUCAACACAGCGUCGCAAAGUGGGUGUGGCUAGACUGCC [G2A G21C C31G] | 0.1
19 | GACAGAGCUCAACACAGCGUAGCAAAGUGACUCUGGCUAGACUGCC [G2A G21A G30A G33C] | 0.02

Row | Variant | self-cleavage
20 | GACAAAGCUCAACAUAGCGUGGCAAAGUGGCUGUGGCUAGACUGCC [G2A G5A C15U] | 1.76
21 | GACAGACCUCAACACAGCUUGGCAAAGUGGCUGUAGCUAGACUGCC [G2A G7C G19U G35A] | 0.39
22 | GACAGAGCUCAACACAGCGUUGCAAAGUGGUUGUGGCUAGACUGCC [G2A G21U C31U] | 0.19
23 | GACACAGCUCCACAAAGCGUGGCAAUGUGGCUGUGGCUAGACUGCC [G2A G5C A11C C15A A26U] | 0.02
24 | GACAGAGCUCAACACAGCGAGGCAAAGUGGCUGUGGCUAAACUGCC [G2A U20A G40A] | 0.07
25 | GACAGAACUAAACACAUCGUGGCAAAGUGGCUGUGGCUAGACUGCC [G2A G7A C10A G17U] | 0.11
26 | GACAGACCUCAACACAGCGUGGCGAACUGGCUGUGGCUACAAUGCC [G2A G7C A24G G27C G40C C42A] | 0.18
27 | GACAGAGCUCAACACAGCGUGGCAAAUUGGCUCUGGCUAGACUGCC [G2A G27U G33C] | 0.05
28 | GACAGAGCUCAACACAGCGGGGCCAAGUGGAUGUGGCUAGACUGCC [G2A U20G A24C C31A] | 0.05
29 | GACAGAGCUCAACACAGCGUGGCAAAGUCACUGUGGCUAGACUGCC [G2A G29C G30A] | 0.42
30 | GACAGAGCUCAACACAGCGUGGCAAAGUGGCUGUGGUAAGACUGCC [G2A C37U U38A] | 0.2
31 | GACAAAGCUCAACACAGCGUGGCAAAGUGGCUGUGGCUAGACUUCC [G2A G5A G44U] | 0.26
32 | GACAGAGCUCAACACAGCGUGGCAAAGUGGCUGUGAAUAGACUGCC [G2A G36A C37A] | 0.81
33 | GACAGAGCCCAACACAGCGUGGCAACGUGGCUGUGUCUAGACUGCC [G2A U9C A26C G36U] | 0.03
34 | GACAGAGCUCAACACAAAGUGGCCAAGUGGCUGUGGCUAGACUGCC [G2A G17A C18A A24C] | 0.5
35 | GACAGAGCUCAACACAGCGUGGCAAAGUGGGUGUACCUAGACUGCC [G2A C31G G35A G36C] | 0.16
36 | GACAGAACUCAACCCAGCGUGGCAAAGUGGCUGGGGCUAGACUGCC [G2A G7A A14C U34G] | 0.15
37 | GACAGAUAUCAACACAGCGUGGCAAAGUGGCUGUGGCUAGACUACC [G2A G7U C8A G44A] | 0.69
38 | GACAGAGCUCAACACAGCGUGGCAAAGCGGAGGUGUCUAGACUCCC [G2A U28C C31A U32G G36U G44C] | 0.13

Row | Variant | self-cleavage
39 | GACAGAGCUCAACACAGCGUGUCAAAGUGGCUGUGGCUAGACCGCC [G2A G22U U43C] | 0.08
40 | GACAAAGCUCAACACAGCGUGGCAAAGUGGAUGUGGCUAGACUGCC [G2A G5A C31A] | 0.18
41 | GACAGAGCUCAACACAGCGUGGCAAAGUCGCUGUGGCUACACUGCC [G2A G29C G40C] | 0.1
42 | GACAGAGCUCAACACAGCGGGCCAAAGUGGCUGUGCCUAGGCUGCC [G2A U20G G22C G36C A41G] | 0.02
43 | GACAGAGCUCAACACAGCGUGGCAAAGUGGUUGUGGCUGGACUGCC [G2A C31U A39G] | 0.11
44 | GACACAGCUCAACACAGCGUGGCAAUGUGGUUGCGGCUAGAUUGCC [G2A G5C A26U C31U U34C C42U] | 0.03
45 | GACAGAGCUCAACACAGCGUGGCAAAGUGGCUGUGUAUAGACUGCC [G2A G36U C37A] | 0.38
46 | GACACAGCUCAACACAGCGUGGCAAAAUGACUGAGGCUAGACUGCC [G2A G5C G27A G30A U34A] | 0.13
47 | GACAGAGCUCAACACAGCGUGGCAAAGUGGCUGUGGGUAGACUGUC [G2A C37G C45U] | 0.05
48 | GACAGAGCUCAACACAGCGUGGAAAAGUAACUGUGGCUAGACUACC [G2A C23A G29A G30A G44A] | 0.64
49 | GACAGAGCUCAACACAGCGUGGCAAAGUGGCUGUGUCUAGAAUGCC [G2A G36U C42A] | 0.04
50 | GACAGAGCUCAACACAGCAACGCUAAGUGGCUGUGGCUAGACUGCC [G2A G19A U20A G21C A24U] | 0.33
51 | GACAGAGCUCAACACAACGUGGCAAAGUGGCUGUGGCUAGACCGCC [G2A G17A U43C] | 0.09
52 | GACAGAGCUCAACACAGCGUGGCAAAGUGGCUGUGGAUAGGCUGCC [G2A C37A A41G] | 0.2
53 | GACAGAGCUCAACACAACGUGGCAAACUGGCUCUGGCUAGUCUGCC [G2A G17A G27C G33C A41U] | 0.04
54 | GACAGAGCUCAACACAGCGAGGCAAAGUGGGUGUGGCUAGACUGCC [G2A U20A C31G] | 0.11
55 | GACAGAGCUCAACACAGCGAGGCAAAGUGGCUGCGGCUAGACUGCA [G2A U20A U34C C46A] | 0.13
56 | GACAGAUCUCAACAGAGCGUGGCAAAGUGGCUGUGGCUAGACUGCC [G2A G7U C15G] | 0.22
